Measured values as given in the supplement of paper PMC3334620.
Whole data set: some 33,000 sequences, median “E-score (-0.5 to 0.5)” near -0.053, cut for the highest 2% near 0.37. Some of the results follow.

Each sequence was assayed against Hap1 (UniProt P0CE41) (assay: PBM E-score (8-mer binding enrichment) (E-score (-0.5 to 0.5)); higher = stronger / more preferred TF binding; most listed sequences are background and not binding sites). Conditions: protein concentration: 200 nM; construct: GST-DNA-binding domain.
UniProt P0CE41, sequence (P0CE41 whole entry, the tested form may be a part): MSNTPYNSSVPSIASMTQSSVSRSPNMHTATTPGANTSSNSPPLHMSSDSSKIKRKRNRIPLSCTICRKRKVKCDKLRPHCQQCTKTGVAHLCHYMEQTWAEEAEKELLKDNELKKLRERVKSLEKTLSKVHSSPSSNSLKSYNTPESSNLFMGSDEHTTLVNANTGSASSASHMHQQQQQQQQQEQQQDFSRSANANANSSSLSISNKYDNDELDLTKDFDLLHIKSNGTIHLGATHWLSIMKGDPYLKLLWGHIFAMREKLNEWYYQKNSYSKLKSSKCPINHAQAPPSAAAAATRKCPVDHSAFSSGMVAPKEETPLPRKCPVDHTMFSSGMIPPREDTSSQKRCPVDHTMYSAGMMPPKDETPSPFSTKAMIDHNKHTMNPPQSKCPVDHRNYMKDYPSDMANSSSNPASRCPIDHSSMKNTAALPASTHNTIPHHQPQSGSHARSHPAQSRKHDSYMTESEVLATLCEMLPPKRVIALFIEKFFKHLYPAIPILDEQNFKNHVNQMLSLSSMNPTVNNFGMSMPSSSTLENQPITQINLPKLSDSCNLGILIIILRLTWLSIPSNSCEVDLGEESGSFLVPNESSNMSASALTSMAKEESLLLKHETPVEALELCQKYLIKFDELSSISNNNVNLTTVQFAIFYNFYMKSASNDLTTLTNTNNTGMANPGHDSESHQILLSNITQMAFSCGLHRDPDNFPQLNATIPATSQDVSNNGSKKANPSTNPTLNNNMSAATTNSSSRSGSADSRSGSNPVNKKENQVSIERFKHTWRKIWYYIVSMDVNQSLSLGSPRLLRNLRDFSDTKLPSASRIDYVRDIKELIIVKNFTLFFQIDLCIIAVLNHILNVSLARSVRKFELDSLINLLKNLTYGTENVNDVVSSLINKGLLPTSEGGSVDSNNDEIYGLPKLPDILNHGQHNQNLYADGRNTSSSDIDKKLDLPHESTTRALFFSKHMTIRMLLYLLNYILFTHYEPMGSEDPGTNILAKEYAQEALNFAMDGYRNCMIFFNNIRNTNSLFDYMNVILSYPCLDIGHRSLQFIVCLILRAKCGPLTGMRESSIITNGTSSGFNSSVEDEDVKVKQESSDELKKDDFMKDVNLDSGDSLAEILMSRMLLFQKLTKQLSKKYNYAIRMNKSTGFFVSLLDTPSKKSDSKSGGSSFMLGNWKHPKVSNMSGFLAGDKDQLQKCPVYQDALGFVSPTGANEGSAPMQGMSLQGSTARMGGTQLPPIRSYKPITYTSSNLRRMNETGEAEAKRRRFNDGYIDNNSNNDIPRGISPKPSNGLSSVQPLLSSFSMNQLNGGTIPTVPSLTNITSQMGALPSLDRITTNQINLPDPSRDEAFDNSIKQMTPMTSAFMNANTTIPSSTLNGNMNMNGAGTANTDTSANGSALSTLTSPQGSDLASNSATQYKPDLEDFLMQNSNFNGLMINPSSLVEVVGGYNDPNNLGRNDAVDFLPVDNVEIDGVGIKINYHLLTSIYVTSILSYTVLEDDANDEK
How it was run: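 Detection of bound protein used fluorescent anti-GST, with scans normalised by masliner. The proteins were GST-tagged yeast transcription factors applied at about 100-200 nM to universal all-10-mer Agilent arrays made double-stranded by primer extension. Each ungapped eight-base word, pooled with its reverse complement, was scored with an E-score from the Universal PBM Analysis Suite.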

| Sequence | PBM E-score |
| --- | --- |
| AATAGCAT | -0.0964 |
| AGCTCTGA | -0.25 |
| AGGGCCGC | 0.177 |
| ACTTTCGC | -0.117 |
| AACCAGGT | -0.208 |
| GAAGTTCA | 0.0133 |
| AACCGCGC | 0.157 |
| AGGTGGAG | -0.173 |
| CGATGCGA | 0.126 |
| CTAGCTAG | -0.341 |
| GAAACAAA | 0.0047 |
| ACCATGGA | -0.247 |
| GCGTGGAC | -0.0334 |
| CGTGTCTA | -0.0688 |
| GCGACGCA | -0.14 |
| TGTACTAA | -0.126 |
| ACGCGAAC | -0.0222 |
| CGAGATAC | 0.188 |
| GTGGTCAA | -0.257 |
| GAAATACA | -0.109 |
| AAGAAGAG | -0.141 |
| CTCTGGGA | -0.133 |
| AGTCCACC | -0.153 |
| AGTGGGCA | -0.0283 |
| GATCAATA | 0.0534 |

| Sequence | PBM E-score |
| --- | --- |
| CGTCCACG | 0.00086 |
| CAAGTAGC | -0.214 |
| ATAATTCG | 0.102 |
| CGGGCTAC | 0.145 |
| AGCTTTTA | 0.0284 |
| CTAACTGA | -0.0638 |
| TATGAGAA | -0.215 |
| AGGAACAT | -0.241 |
| CTCAGCTA | -0.214 |
| AGAAACTA | -0.191 |
| CCCCGACA | 0.302 |
| AATTCCGT | 0.414 |
| TGAGCACA | -0.227 |
| CAATTCAC | -0.162 |
| CCTCACGC | -0.207 |
| ACGTACCT | -0.321 |
| ACGCATGA | -0.213 |
| CGGTGCAA | 0.18 |
| TGCCGCAA | -0.0451 |
| CTCACCAG | -0.0921 |
| ACCAAGTC | 0.0115 |
| CAGACGGC | -0.172 |
| GCACAGGC | -0.0809 |
| CGGGCCGC | 0.263 |
| AGCAGGCG | -0.0396 |

| Sequence | PBM E-score |
| --- | --- |
| GACGTTGA | 0.00492 |
| AACATTAG | -0.263 |
| TACAAAAA | -0.133 |
| GATATCCA | 0.0253 |
| ATCAAAAA | -0.0323 |
| CGTGACTC | -0.196 |
| CGTCACAC | -0.0976 |
| CCCTCCAC | -0.233 |
| CAGCAGGG | -0.221 |
| ATTACCAG | -0.0617 |
| ACATCTCA | -0.188 |
| TTCTAGAA | -0.121 |
| ACAACTGG | 0.101 |
| ACGGGTCC | 0.266 |
| ATAAGACG | -0.207 |
| ACCGCGCG | 0.232 |
| TATCCTGA | -0.0806 |
| TTGAACAA | -0.168 |
| AAAGTGTA | -0.15 |
| TCGCTTAA | 0.0507 |
| AGACCGTA | -0.00331 |
| CCCGGCAG | 0.21 |
| CAAGGATC | -0.132 |
| ACTAGATC | -0.129 |
| ATGCGTGG | -0.22 |

| Sequence | PBM E-score |
| --- | --- |
| ACCTAACG | -0.0717 |
| ATCTAAGG | -0.189 |
| ATCCGTGA | 0.271 |
| GACCTCGA | -0.0256 |
| CATGTTTC | -0.0181 |
| CTCGTAAA | -0.0935 |
| TGATTGAA | -0.126 |
| AGGCCCGA | 0.279 |
| ATTTATCA | 0.0206 |
| ACGAAAGA | -0.148 |
| ATGACGCG | -0.0356 |
| CTCACTTA | -0.178 |
| CGCCCTAG | -0.0467 |
| CACGTGGA | -0.166 |
| AACTGTCC | -0.102 |
| CACTTAGA | -0.054 |
| GTAACAGA | 0.128 |
| CGTTACAA | -0.0875 |
| GGACTCAA | 0.172 |
| ATAACGAG | -0.151 |
| GGAACGCA | 0.0123 |
| GAGCGGCA | 0.118 |
| CAAGCCCC | 0.0196 |
| CAGTGACA | -0.253 |
| ATATAAAT | 0.111 |

| Sequence | PBM E-score |
| --- | --- |
| AACCCAAA | -0.138 |
| ACTAGCTG | -0.156 |
| CCCGCGAC | 0.195 |
| AGTTAGCG | 0.09 |
| GGTATACC | 0.212 |
| CACCGAGC | 0.297 |
| AGTGTTCC | 0.05 |
| GGGGACCA | -0.153 |
| CCATGCAC | -0.107 |
| ACTTTTCC | 0.0901 |
| ATAGAGAG | -0.249 |
| TGTTGCAA | 0.0983 |
| TATGAGCA | -0.146 |
| CTTATGAC | 0.0491 |
| GAATTCGA | -0.0583 |
| CGTTATTC | 0.164 |
| AGCATGTA | -0.285 |
| GCTGAGAA | -0.109 |
| CAAGCTCA | -0.221 |
| AGCGGTGG | 0.162 |
| CGATTATA | 0.142 |
| AAGTCCTC | 0.0366 |
| AATCCTGT | -0.00559 |
| ACCGAGGT | 0.29 |
| CGAATAAC | 0.112 |

| Sequence | PBM E-score |
| --- | --- |
| GTGTTCAA | 0.0233 |
| GAGCCAGC | -0.124 |
| CCTCACCG | 0.0689 |
| CCCCCGAC | 0.336 |
| AAAGCGGC | 0.0715 |
| CTCTCTTA | -0.0903 |
| CGAAGTTA | 0.121 |
| ACTTTAAA | 0.157 |
| AGACGTGG | -0.162 |
| AGTGCTCA | -0.172 |
| TATATTAA | 0.0308 |
| ACTGCGAC | 0.122 |
| TAACTCGA | 0.052 |
| CAGTAGCG | 0.0723 |
| AACTTGTC | -0.00823 |
| CTAGGTAA | -0.271 |
| ACCGCTAG | -0.0654 |
| AAACGAGG | -0.115 |
| ACACGTGA | -0.0908 |
| ACCTGGTG | -0.0298 |
| AAAGGAGT | 0.0715 |
| GGTCCAAC | 0.13 |
| AATCGCGG | 0.192 |
| CGTCAGGA | -0.255 |
| GACTGAAC | -0.134 |

| Sequence | PBM E-score |
| --- | --- |
| GATGTACA | 0.00013 |
| CACCTGCC | -0.0739 |
| AGATGTAT | -0.235 |
| ACAGAATC | -0.0649 |
| ACGCCCGC | 0.183 |
| AACTTTCG | -0.00132 |
| GATGACAC | -0.0914 |
| CAACGATG | -0.227 |
| AATGGATA | -0.0421 |
| GTCTGTCA | 0.0217 |
| CCCTCTGA | -0.0688 |
| AGGAAAAG | -0.074 |
| CATCGTCA | -0.284 |
| GTGGGCCA | -0.0535 |
| GTTCAGCA | -0.244 |
| ATCGAGGC | -0.191 |
| ACTAGAGT | -0.234 |
| AATCTGCG | 0.263 |
| AACAGTAA | -0.19 |
| CCCTTTAC | 0.00221 |
| AAAAAGTA | -0.103 |
| ACAGCTCT | -0.31 |
